# Laboratory results from article PMC4336329 (PLoS ONE, 2015).
# Among all 310,000 compounds or so, about 2,200 (0.71%) showed an effect of 50% or more. The effect is printed as a negative number. The list shows a part of the results.
# Biological target: human ether-à-go-go-related gene (hERG) potassium channel (human, UniProt Q12809)
# Assay: primary screen, population patch clamp on CHO cells stably expressing hERG
# Chain of human ether-à-go-go-related gene (hERG) potassium channel (Q12809 whole entry, looked up): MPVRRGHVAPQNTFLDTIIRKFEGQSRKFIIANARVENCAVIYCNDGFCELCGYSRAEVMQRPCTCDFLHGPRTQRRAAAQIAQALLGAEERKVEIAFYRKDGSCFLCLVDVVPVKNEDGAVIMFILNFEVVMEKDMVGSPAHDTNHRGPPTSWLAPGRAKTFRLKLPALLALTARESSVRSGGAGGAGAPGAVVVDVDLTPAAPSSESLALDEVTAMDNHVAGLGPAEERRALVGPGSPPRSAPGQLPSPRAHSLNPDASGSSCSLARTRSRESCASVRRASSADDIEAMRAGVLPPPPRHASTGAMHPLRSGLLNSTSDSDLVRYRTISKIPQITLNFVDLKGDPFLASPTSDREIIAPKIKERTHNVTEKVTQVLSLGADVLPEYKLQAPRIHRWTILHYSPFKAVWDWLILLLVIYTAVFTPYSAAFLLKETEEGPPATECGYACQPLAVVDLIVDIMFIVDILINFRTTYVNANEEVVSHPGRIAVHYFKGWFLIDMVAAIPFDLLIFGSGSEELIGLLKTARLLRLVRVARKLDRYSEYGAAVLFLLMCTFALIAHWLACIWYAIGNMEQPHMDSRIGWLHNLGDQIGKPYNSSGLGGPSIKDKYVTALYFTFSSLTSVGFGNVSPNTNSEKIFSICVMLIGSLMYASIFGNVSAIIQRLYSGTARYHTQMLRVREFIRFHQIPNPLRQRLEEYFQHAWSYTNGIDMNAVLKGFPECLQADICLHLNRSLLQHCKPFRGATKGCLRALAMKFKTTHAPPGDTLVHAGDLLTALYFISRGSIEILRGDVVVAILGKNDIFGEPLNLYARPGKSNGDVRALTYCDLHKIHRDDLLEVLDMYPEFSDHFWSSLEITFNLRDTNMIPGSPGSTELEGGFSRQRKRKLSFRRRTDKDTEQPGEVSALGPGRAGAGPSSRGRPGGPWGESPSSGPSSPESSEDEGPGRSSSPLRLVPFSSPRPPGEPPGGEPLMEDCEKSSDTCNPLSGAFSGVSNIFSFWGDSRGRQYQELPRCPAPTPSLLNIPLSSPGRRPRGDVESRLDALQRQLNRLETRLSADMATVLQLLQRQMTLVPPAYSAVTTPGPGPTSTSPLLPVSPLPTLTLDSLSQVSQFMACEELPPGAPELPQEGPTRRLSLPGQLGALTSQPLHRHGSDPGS
row,Structure (SMILES),"hERG current change (%, negative = inhibition) at 1uM"
1,O=C(Cn1cncn1)N/N=C/c1ccccc1Cl,17.9%
2,CCOC(=O)c1ccccc1NC(=O)c1c(O)[nH]c(=O)[nH]c1=O,7.71%
3,CC(C)C[C@H]1CN=C(Nc2ccccc2)N1CC1CCCC1,1.51%
4,CCOC(=O)C1CCN(C(=O)c2ccccc2N(C)S(C)(=O)=O)CC1,16.7%
5,O=C(COC(=O)C1CCC(=O)N1)Nc1ccc(Oc2ccccc2)cc1 (stereo not drawn),9.4%
6,O=C(COC(=O)c1cc(NS(=O)(=O)c2cccs2)ccc1O)Nc1ccc(F)c(F)c1F,14.4%
7,COc1ccc(C(=O)NC2CC2)cc1OC1CCN(C(C)CSC)CC1 (stereo not drawn),-54.2%
8,CC(C)Oc1ccccc1/C=N/NC(=O)C1CCCC1,10.3%
9,CN1CCN(C(=O)c2cc(=O)c3cc(Cl)ccc3o2)CC1,2.6%
10,COc1ccc(N=Cc2c(O)c3ccccc3oc2=O)cc1,9.27%
11,CN1C(=O)c2ccccc2Sc2ccc(NC(=O)NC3CC3)cc21,5.34%
12,Cc1ccccc1NC(=O)Cn1cnc2c(oc3nc4c(cc32)CCCC4)c1=O,11.3%
13,COc1ccccc1N1CCN(C(=O)c2cc(N3C(=O)C4C5CCC(C5)C4C3=O)ccc2Cl)CC1 (stereo not drawn),5.71%
14,Cc1ccc(NC(=O)C2CCN(S(=O)(=O)c3ccc4c(c3)CCCC(=O)N4)CC2)c(Br)c1,1.67%
15,CN(C)C(C)(C)C#CCC(c1ccccc1)c1ccccc1.Cl,5.49%
16,CCc1noc(C)c1C(=O)N1CCN(c2cccc(C)c2C)CC1,-3.77%
17,CC1CCCN(c2ccc(C(=O)NCCc3ccccc3)cn2)C1 (stereo not drawn),-5.24%
18,CC(=O)Nc1cccc(OCC(=O)NS(=O)(=O)c2ccc(Cl)cc2)c1,12.2%
19,O=C(CSc1nnc(SCc2cccc3ccccc23)s1)N=Nc1c(O)[nH]c2ccccc12,15.1%
20,CCn1c(SCC(=O)c2ccc(O)c(O)c2)nnc1-c1ccccc1OC,0.108%
21,O=C(CSc1nnc(COc2ccccc2Cl)o1)NC(=O)NC1CCCC1,7.23%
22,COc1ccc(C(=O)CN2C(=O)NC(C)(c3ccccc3)C2=O)cc1OC (stereo not drawn),3.32%

row,Structure (SMILES),"hERG current change (%, negative = inhibition) at 1uM"
1,O=C(COc1ccc([N+](=O)[O-])cc1)Nc1ccccc1C(=O)NC1CC1,9.83%
2,Cc1ccccc1NC(=O)COc1ccc(S(=O)(=O)N2CCCC2)cc1C,15%
3,COCC(=O)N1CCCC(N(C)CCc2ccc(OC)c(OC)c2)C1 (stereo not drawn),14.6%
4,O=C(CC1Sc2ncnn2C1=O)Nc1ccc(Br)cc1 (stereo not drawn),8.98%
5,CCc1cc2cc(C)cc(C)c2nc1SCC(=O)N1CCCC1,14.9%
6,O=C(CO/N=C/c1ccc2c(c1)OCO2)Nc1cccc(Br)c1,10.7%
7,Cc1c(C(=O)NCc2ccccn2)oc2ccccc12,9.86%
8,O=C1c2cccc3cccc(c23)C(=O)N1OS(=O)(=O)c1ccc(Br)cc1,12.3%
9,COc1cc(OC)c(S(=O)(=O)Nc2ccccc2N2CCCCC2)cc1NC(C)=O,14.7%
10,COC(=O)c1ccccc1NC(=O)c1cc(C)no1,15.6%
11,O=C(CN1C(=O)c2ccccc2S1(=O)=O)c1ccc(F)c(F)c1,7.38%
12,Cc1nn(Cc2ccccc2)c(Cl)c1/C=C/C(=O)OCC(=O)N(C)C1CCS(=O)(=O)C1 (stereo not drawn),11%
13,O=C(NCc1ccco1)c1ccccc1NS(=O)(=O)c1ccc(Br)s1,2.22%
14,C[C@H]1C(=O)N(C)CCN1Cc1cn(C)nc1-c1ccc(Oc2ccccc2)cc1,4.43%
15,S=C(NCc1ccncc1)Nc1ccccc1,7.34%
16,O=C/C=C/c1coc2ccc3ccccc3c2c1=O,14.9%
17,O=C(CSc1nc2ccccc2o1)NC1CCCC1,3.13%
18,CCC(C)[C@H](NC(=O)[C@H](Cc1ccccc1)n1c(=O)[nH]c2ccccc2c1=O)C(=O)NCC1CCC(C(=O)O)CC1 (stereo partly drawn),14.5%
19,O=C(c1cccc(NS(=O)(=O)c2cccc([N+](=O)[O-])c2)c1)N1CCOCC1,4.34%
20,NC(=O)CSc1nc2ccccc2c(=O)n1CCc1ccccc1,7.56%
21,O=C(NNc1c2ccccc2nc2ccccc12)c1cccc(O)c1,7.03%
22,Cc1ccc(C(=O)Nc2cccnc2Cl)cc1Cl,15.7%

row,Structure (SMILES),"hERG current change (%, negative = inhibition) at 1uM"
1,Cc1cccc(C(=O)OCC(=O)NCCCc2ccccc2)c1O,11%
2,COc1ccc(NC(=O)c2cn(CCC#N)nc2-c2ccc(OC)c(OC)c2)cc1,8.84%
3,CC(C)CNC(=O)c1cccc(NC(=O)COc2ccc([N+](=O)[O-])cc2)c1,-9.4%
4,Cc1cccc(C(=O)O/N=C(\N)Cc2ccc([N+](=O)[O-])cc2)c1,-12.9%
5,Nn1c(Nc2ccc(Cl)cc2)nncc1=O,16%
6,Cc1ccc(O)c(C(=O)/C=C/c2ccc3c(c2)OCCO3)c1,9.64%
7,CCOC(=O)C1CCCCN1Cc1ccc(F)c(Br)c1 (stereo not drawn),-0.105%
8,O=C(CSc1nnc2c(Cl)cc(C(F)(F)F)cn12)N(Cc1ccccc1)Cc1ccccc1,1.3%
9,COc1ccccc1-c1nnc2sc(-c3ccc(N(C)C)cc3)nn12,2.77%
10,O=C(CCn1c(=S)oc2ccccc21)Nc1cccc(O)c1,23.4%
11,CC(C)(Oc1ccc(Cl)cc1)C(=O)NNC(=O)c1ccc(Br)o1,11.5%
12,C=C(C)CN1CCN(S(=O)(=O)c2ccc(C)c(N(C)S(=O)(=O)c3ccc(C)cc3)c2C)CC1,14%
13,O=C(Nc1ccc(O)c(C(=O)O)c1)c1ccc2c(c1)C(=O)N(CC1CCCO1)C2=O (stereo not drawn),8.61%
14,CC(=O)Nc1ccc(NC(=O)C(C)OC(=O)/C=C/c2cccs2)cc1 (stereo not drawn),5.49%
15,O=C(Nc1nnc(-c2ccc(Cl)cc2)o1)c1cccc(N2C(=O)CCC2=O)c1,10.4%
16,CC(C)C(=O)N1CCC(c2nc(-c3ccc(S(=O)(=O)N4CCCC4)cc3)no2)CC1,9.81%
17,Cc1cc(C)c(C2C(C#N)=C(N)Oc3n[nH]c(C)c32)cc1CN1CCCC1 (stereo not drawn),3.82%
18,Cc1cccnc1NC(=O)Nc1ccc(Cl)cc1,13.2%
19,Cc1cccc(C(=O)N[C@H](C(=O)Nc2nc(C)cs2)C(C)C)c1,8.84%
20,COc1ccc(C(=O)NCC(c2cccnc2)N2CCN(c3ccccc3)CC2)cc1OC (stereo not drawn),10.6%
21,COC(=O)c1ccc(NC(=O)CSc2nnc(COc3ccccc3)n2C)cc1,14.8%
22,COc1ccccc1NS(=O)(=O)c1cccc(C(=O)N2CCCCCCC2)c1,-0.11%

row,Structure (SMILES),"hERG current change (%, negative = inhibition) at 1uM"
1,COC(=O)C1=C(C)N(C)C(C)=C(C(=O)OC)C1c1ccc(C(=O)OC)cc1,14.3%
2,C=CC[C@@H]1C=C[C@H](O/N=C/c2ccc(C(=O)N3[C@H](c4ccc(C)cc4)[C@@H](C)CC[C@H]3C(=O)OC)cc2)[C@@H](CO)O1,9.16%
3,O=C(c1ccc(Br)o1)N1CCN(C/C=C/c2ccccc2)CC1,-10.4%
4,CN(C)/C=C/C(=O)c1ccc2noc(-c3ccccc3)c2c1,-11.6%
5,Cc1cc(=O)oc2cc(OC(C)C(=O)NCC3CCC(C(=O)O)CC3)ccc12 (stereo not drawn),-6.84%
6,COc1ccc(C2c3ccsc3CCN2C(=O)C(C)(C)C)cc1 (stereo not drawn),13.4%
7,COc1cc(C(=O)NCC(=O)N/N=C/c2cccnc2)cc(OC)c1OC,8.35%
8,Cc1ccc(CN2CC(C(=O)NNC(=O)c3ccc(F)cc3)CC2=O)cc1 (stereo not drawn),12.7%
9,CN(C(=O)COC(=O)C1c2ccccc2Oc2ccccc21)C1CCS(=O)(=O)C1 (stereo not drawn),13%
10,O=C(NCc1ccccc1Cl)NCc1ccccc1Cl,10.8%
11,Cc1oc2ccc(OCc3ccc(F)cc3)cc2c1C(=O)O,2.14%
12,O=C(CCN1CCCCC1)N/N=C/c1c[nH]c2ccccc12,8.37%
13,CCCCc1nnc(NC(=O)C(C)Sc2nc(N)cc(=O)[nH]2)s1 (stereo not drawn),1.63%
14,COc1cccc(C(=O)N/N=C/C(Br)=C/c2ccccc2)c1,-4.43%
15,COc1ccc(NC(=O)CCCN2C(=O)CN(C)C2=O)c(OC)c1,4.31%
16,Cc1ccc(C)c(S(=O)(=O)N2CCCCC2CCNC(=O)C(=O)NCc2ccncc2)c1 (stereo not drawn),-5.08%
17,N#CC1(NC(=O)CSc2n[nH]c(-c3ccccc3)n2)CCCCC1,3.94%
18,CC(C)Cc1nnc(NC(=O)CSc2nc(O)c(Cc3ccccc3)c(=O)[nH]2)s1,21.9%
19,O=C(CSc1nc2ccccc2n1CC(=O)N1CCCC1)Nc1ccc2c(c1)OCO2,-10.9%
20,CC(C)(C)c1ccccc1NC(=S)NC1CCCCC1,5.01%
21,COc1ccc(CC(=O)NCC(=O)NC(Cc2ccccc2)C(=O)O)cc1 (stereo not drawn),15%
